The whole screen tested about 43,000 compounds, of which about 200 (0.47%) were called active. Inconclusive results (about 12%) are left out. The call rests on the fitted dose curve; in most records, active means well fitted cell-killing curve with a large enough effect; inconclusive means small, poorly fitted or top-dose-only effect, or effect the other way; inactive means flat fitted curve, though single readings scatter. This is one part of the list.
On the % scale 0 is the no-effect control and ±100 the full control effect.

This test can be described thus: Cell viability qHTS assay in S16 Pmp22-F2sN cells. Further: nearly all actives have a fitted effect of over 65% in size. The conditions noted are these: S16 Pmp22-F2sN Schwann cells (luciferase reporters placed in the Pmp22 gene) viability, CellTiter-Glo, 24 h; series mostly up to 57.5 µM; activity change, negative = cytotoxicity: at the top concentration. A digest of the protocol: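 S16 Schwann cells carrying the Pmp22-F2sN reporter, seeded in 1536-well format, were exposed to library compounds for 24 h at 37C. Viability was read as CellTiter-Glo luminescence after 15 min at room temperature.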
For orientation: Quantitative high-throughput screening tests each substance at several concentrations.
With `COC(=O)c1ccccc1NC(=O)c1cnc2c(-c3cccc(C)c3)c(C)nn2c1C`, the “activity change, negative = cytotoxicity” value was inactive: 0.423%. As for `Cc1ccc2oc(=O)c(S(=O)(=O)c3ccc(C(C)(C)C)cc3)cc2c1`, the “activity change, negative = cytotoxicity” value is inactive: -1.72%. With `CN(C)c1ccc(CNC(=O)CN2CCSc3ccc(S(=O)(=O)N(C)C)cc32)cc1` the figure was inactive: -0.0239%. In the case of `COc1ccc(OC)c2sc(N(Cc3cccnc3)C(=O)c3ccco3)nc12`, the “activity change, negative = cytotoxicity” value is inactive: -2.98%. With `CCc1ccccc1NC(=O)Nc1nnc(N(CC)c2ccccc2)s1` the figure was inactive: 7.18%; with `Cc1ccc(CNC(=O)c2cc(-c3ccc(Cl)cc3)on2)cc1`, inactive: -0.682%; with `CC(C)(C)c1ccc(C(=O)Nc2sc3c(c2C#N)CCC(C(C)(C)C)C3)cc1` (stereo unspecified), inactive: -0.148%.

For `O=C(Nc1ccc(Br)cc1)C1CCCN1S(=O)(=O)c1ccc(F)cc1` (stereo unspecified), the “activity change, negative = cytotoxicity” value is inactive: -2.57%.

As to `COc1ccc(CNC(=O)c2oc3c(c2C)-c2nn(Cc4ccc(Cl)cc4)cc2CC3)cc1`, the “activity change, negative = cytotoxicity” value is inactive: -16.5%. As for `Cc1ccc(CNC(=O)CNS(=O)(=O)c2cccs2)cc1`, the “activity change, negative = cytotoxicity” value is inactive: -14.4%.

Turning to `Cc1ccc(NC(=O)C2CCN(c3nn4cc(-c5ccc(C)cc5)nc4s3)CC2)cc1`, the “activity change, negative = cytotoxicity” value is inactive: -1.09%. With `CCN(c1ccccc1)S(=O)(=O)c1nnc(NC(=O)COc2cccc(C)c2)s1` the figure was inactive: -4.31%; with `Cc1cccn2c(=O)c(C(=O)NC(C)c3ccccc3)cnc12` (stereo unspecified), inactive: -0.741%. Take `Cc1ccc(OCc2nc(-c3ccc(C(=O)NCc4ccc(OC(C)C)cc4)cc3)oc2C)cc1`: the “activity change, negative = cytotoxicity” value is inactive: 4.62%. The same measure for `CCN(C(=O)c1cc2c(=O)oc3ccc(C)cc3c2s1)c1ccccc1C`: inactive: -3.58%.

On to `Cc1cc(C)cc(N2C(=O)N(Cc3cccc(F)c3)c3ccccc3S2(=O)=O)c1`, for which the “activity change, negative = cytotoxicity” value was inactive: -4.9%. With `Cc1ccc(C(=O)c2cn(Cc3ccc(Cl)cc3)c3nc(C)ccc3c2=O)cc1` the figure was inactive: 5.94%; with `COc1ccc(N2CCN(C(=O)CSc3n[nH]c(-c4ccccc4Cl)n3)CC2)cc1`, inactive: 16.8%; with `Cc1ccc(C)c(CN2C(=O)c3ccccc3S(=O)(=O)c3ccc(C(=O)NCCC4=CCCCC4)cc32)c1`, inactive: -9.38%.

Take `Cc1cc(C)c(NC(=O)C(C)n2nnc3sc4c(c3c2=O)CCCC4)c(C)c1` (stereo unspecified): the “activity change, negative = cytotoxicity” value was inactive: 12.1%. With `COc1ccc(Nc2oc(-c3ccc(COc4ccccc4C)o3)nc2C#N)cc1` the figure was inactive: 1.79%; with `CCOc1ccc(N(C)S(=O)(=O)c2ccc3[nH]cc(C(=O)NCc4ccccc4)c(=O)c3c2)cc1`, inactive: -2.01%. With `Cc1cccc(-c2noc(-c3ccc(N4CCOCC4)c([N+](=O)[O-])c3)n2)c1` the figure was inactive: 2.8%. The same measure for `CC1CCN(S(=O)(=O)c2ccc3c(ccc(=O)n3CC(=O)Nc3cccc(F)c3)c2)CC1`: inactive: 1.35%; for `O=C(Nc1cnc(N2CCN(c3ccccc3)CC2)c(C(=O)O)c1)c1cccs1`: inactive: 0.0615%. Consider `Cc1ccc(NC(=O)c2cc(S(=O)(=O)NCCc3ccc(Cl)cc3)ccc2F)cc1`, for which the “activity change, negative = cytotoxicity” value is inactive: -17.6%.

`CC(C)(C)C1CCc2oc3ccc(NS(=O)(=O)c4ccc(C(=O)O)cc4)cc3c2C1` (stereo unspecified): the “activity change, negative = cytotoxicity” value is inactive: 6.77%.

As for `COc1ccc(Cn2c(SCC(=O)N(C)Cc3ccccc3)nc3ccccc32)cc1`, the “activity change, negative = cytotoxicity” value is inactive: -26.2%. On to `Cc1ccc(NC(=O)Cn2c(=O)nc(-c3ccccc3)c3ccccc32)cc1F`, for which the “activity change, negative = cytotoxicity” value was inactive: 6.22%.

For `COc1ccc(C2N=C(N)Nc3nc4ccccc4n32)cc1` (stereo unspecified), the “activity change, negative = cytotoxicity” value was inactive: 0.28%. Regarding `CC1CCCCN1C(=O)c1cc(-c2ccc(Br)cc2)on1` (stereo unspecified), the “activity change, negative = cytotoxicity” value was inactive: 0.016%.

As for `Cc1csc2nc(COc3cccc(NC(=O)c4ccccc4F)c3)cc(=O)n12`, the “activity change, negative = cytotoxicity” value is inactive: 0.777%. The same measure for `Cc1nn(CC(=O)N2CCN(c3ccc(Cl)cc3)CC2)c(=O)c2cccn12`: inactive: 10.7%; for `COc1ccc(OCC(O)Cn2c(NCCO)nc3c2c(=O)n(C)c(=O)n3C)cc1` (stereo unspecified): inactive: -1.26%.

Take `CCOC(=O)CSc1nc2c(sc3ccccc32)c(=O)n1CCO`: the “activity change, negative = cytotoxicity” value was inactive: 6.77%.

On to `COc1ccccc1CNC(=O)c1cn(C)c2ccc(S(=O)(=O)N(C)C3CCCCC3)cc2c1=O`, for which the “activity change, negative = cytotoxicity” value was inactive: -0.747%.

On to `Cc1ccc(NC(=O)CSc2cn(CC(=O)N3CCCC3)c3ccccc23)cc1Cl`, for which the “activity change, negative = cytotoxicity” value was inactive: -14.7%.

Take `CCOc1ccc(NS(=O)(=O)c2ccc3c(c2)CCCN3C(=O)C2CCC2)cc1`: the “activity change, negative = cytotoxicity” value was inactive: -15.1%.

With `O=C(CSc1nc2c([nH]c3ccccc32)c(=O)n1-c1ccc(Cl)cc1)c1ccccc1`, the “activity change, negative = cytotoxicity” value was inactive: -4.19%. Consider `Cc1ccc2nc(COc3ccccc3NC(=O)c3ccc(F)cc3)cc(=O)n2c1`, for which the “activity change, negative = cytotoxicity” value is inactive: -0.623%. Turning to `Cc1ccc2c(=O)cc(C(=O)Nc3ccc(S(=O)(=O)Nc4ncccn4)cc3)oc2c1C`, the “activity change, negative = cytotoxicity” value was inactive: 7.36%. With `Cc1cc(C)c(NC(=O)C2CCN(c3nn4c(=O)cc(C)nc4s3)CC2)c(C)c1` the figure was inactive: 6.22%; with `COc1ccc(NCc2cccn2-c2nnc(N3CCCCC3)s2)cc1OC`, inactive: 9.4%.

Regarding `O=C(CSC1=Nc2ccccc2N=C(c2ccc(F)cc2)C1)Nc1ccccc1`, the “activity change, negative = cytotoxicity” value is inactive: 25.6%. With `CCOc1ccc(NC(=O)c2c(NC(=O)Cc3ccccc3)sc3c2CCCCC3)cc1`, the “activity change, negative = cytotoxicity” value was inactive: -21.4%. As for `Cc1ccc(-n2c(=O)c3c(c4cc(C)ccc4n3C)n(CC(=O)N3CCCC3)c2=O)cc1`, the “activity change, negative = cytotoxicity” value is inactive: 17.7%. Consider `CCOCCCN1C(=O)c2ccccc2CC1(C)C(=O)NC1CCCCC1` (stereo unspecified), for which the “activity change, negative = cytotoxicity” value was inactive: 9.21%. With `COC(=O)c1ccccc1NC(=O)c1sc2nc(C)cc(C)c2c1NC(=O)c1ccccc1OC`, the “activity change, negative = cytotoxicity” value is inactive: -11.9%. Take `Cc1noc(C)c1S(=O)(=O)N(CC(=O)NCCc1ccccc1)c1ccc(C(C)C)cc1`: the “activity change, negative = cytotoxicity” value was inactive: -0.664%.

With `COc1cc(-c2nc(Cn3nnc(C(=O)Nc4cccc(Cl)c4)c3C)c(C)o2)cc(OC)c1OC`, the “activity change, negative = cytotoxicity” value is inactive: 21.3%. Consider `Cc1ccc(-c2cn3c(n2)sc2cc(C(=O)NCCC4=CCCCC4)ccc23)cc1`, for which the “activity change, negative = cytotoxicity” value was inactive: 15.9%. For the compound `COc1ccc(NC(=O)CSc2nc3c(oc4ccccc43)c(=O)n2Cc2ccco2)cc1Cl`, the “activity change, negative = cytotoxicity” value is inactive: -18.1%. With `COc1ccc(/C=C/C(=O)Nc2nc(-c3cccs3)ns2)cc1` the figure was inactive: 9.05%; with `CC1CCN(S(=O)(=O)c2nnc(NC(=O)c3cccc(Cl)c3)s2)CC1`, inactive: -16.7%; with `COc1ccc2nc(N(Cc3cccnc3)C(=O)Cc3ccccc3)sc2c1`, inactive: -3.5%. With `CC(=O)N1CCc2cc(S(=O)(=O)C(C)CC(=O)Nc3ccc(Br)c(C)c3)ccc21` (stereo unspecified) the figure was inactive: 0.619%; with `CCc1cccc(-n2c(=O)c3cccnc3n2CC(=O)Nc2c(C)cc(C)cc2C)c1`, inactive: -9.56%; with `COc1cc(S(=O)(=O)NCCc2c(C)[nH]c3ccccc23)c(C)cc1C`, inactive: -8.19%. The same measure for `COc1ccccc1CNC(=O)CN1C(=O)COc2ccc(S(=O)(=O)NC3CCCC3)cc21`: inactive: -5.69%; for `Cc1cccc(-n2c(CNC(=O)c3cccc(F)c3)nnc2SCC(=O)Nc2ccccc2F)c1`: inactive: 1.85%.

For the compound `CC1CCN(CC2CCN(C(=O)Nc3ccc(Br)cc3F)CC2)CC1`, the “activity change, negative = cytotoxicity” value was inactive: -5.43%.

The values are drawn from PubChem BioAssay AID1508642 (National Center for Advancing Translational Sciences (NCATS), 2021).
